The text below walks through data of PubChem BioAssay (NCATS).

This is one part of the list. Shown are side measurements of this screen, not its main read-out; they come without a call. Compounds called inactive in the main read-out are mostly missing here. For part of these data: Words in brackets tell the shape of the fitted curve; partial curves, single points and poor fits give uncertain potencies.

A short description of assay [1]: qHTS Assay for Lipid Storage Modulators (AID 1519). As to conditions: Drosophila S3 cells, BODIPY lipid droplet/cell ratio, laser cytometry, cells loaded with oleic acid; for AC50: measured here: lipid (BODIPY) channel AC50. The gist of the method: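 Cells seeded at 5,000 per well were treated with compounds over a concentration series and loaded with oleic acid (400 uM, as added). Lipid droplet fluorescence (488 nm excitation, 500-530 nm channel) was read by laser-scanning cytometry and normalized to 20 uM Triacsin C.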
For orientation: Quantitative high-throughput screening tests each substance at several concentrations.

Assay [2] can be described thus: qHTS assay for small molecule agonists of retinoid X receptor alpha signaling (AID 588544). As to conditions: HEK293T RXRa-UAS-bla, beta-lactamase reporter, 18 h; 530 nm emission.
Assay [3] is described as follows: qHTS assay for small molecule antagonists of retinoid X receptor alpha signaling (AID 588546).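 Further: cells stimulated with 9-cis-retinoic acid as agonist; on the % scale 0 is the no-effect control and ±100 the full control effect.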 As to conditions: HEK293T RXRa-UAS-bla, beta-lactamase ratio, antagonist mode; measured here: W530 green channel, cytotoxicity proxy. A digest of the protocol: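 Beta-lactamase reporter inhibition, read as CCF4 fluorescence ratio (ex 405, em 460/530 nm) after 2 h at RT. HEK293T UAS-bla cells, 2500/well, were stimulated with 9-cis-RA at 500 or 100 nM final alongside test compound for 18 h at 37 C.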

The target in assay [4] is Phenylethanolamine N-methyltransferase (Homo sapiens) (UniProt P11086). Kind of assay: Confirmatory Screen for Target Class Profiling of Small Molecule Inhibitors of Methyltransferases (AID 1745852).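 Further: inhibitor potency for blocking SAH production.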 As to conditions: MTase-Glo luminescence, SAH detection, recombinant enzyme; measured here: PNMT inhibition potency.
Assay [5] in a line: qHTS Assay for Modulators of Human Peripheral Myelin Protein 22 (PMP22) Expression/Activity (AID 1967). As to conditions: Cell-based PMP22 reporter, dual-color luciferase ratio. A digest of the protocol: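 Engineered MSC80 cells, Pmp22-promoter green and EF-alpha red luciferase reporters; 24h compound treatment at 37 °C. Concentration-response fits on green, red and ratio signals, each overlap-corrected, with %Activity normalized to untreated wells.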

Assay [6] can be described thus: qHTS assay for small molecule antagonists of peroxisome proliferator-activated receptor delta signaling (AID 588535).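 Further: cells co-treated with a PPAR-delta agonist as stimulator during compound exposure.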 As to conditions: HEK293T PPARd-UAS-bla, beta-lactamase FRET ratio, 18 h; 460 nm channel. The gist of the method:
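Cell-based beta-lactamase assay in antagonist mode: 4000 HEK293T PPAR-delta-UAS-bla cells per well, 5 hr preincubation then 18 hr compound incubation at 37 C. IC50 obtained by Hill equation fitting.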

The nature of assay [7]: S16 Schwann cell PMP22 intronic element beta-lactamase assay (AID 624044). Further: nearly all actives have a fitted effect of over 15% in size. As to conditions: S16 rat Schwann cells, PMP22 element beta-lactamase FRET, 24 h. The gist of the method: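 Rat S16 Schwann cells with beta-Lac driven by a PMP22 intronic element, compound-treated 24 h at 37 °C. LiveBLAzer FRET B/G read: 460 nm normalized to potassium clavulanate vs DMSO; 535 nm FRET as viability; concentration-effect curves classified.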

For assay [8], the target named is Histamine N-methyltransferase (Homo sapiens) (UniProt P50135). Kind of assay: Confirmatory Screen for Target Class Profiling of Small Molecule Inhibitors of Methyltransferases (AID 1745852).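 Further: inhibitor potency for blocking SAH production.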 As to conditions: MTase-Glo luminescence, SAH detection, recombinant enzyme; measured here: HNMT inhibition potency.
Assay [9] concerns the target Nicotinamide N-methyltransferase (Homo sapiens) (UniProt P40261). The assay is described as above. As to conditions: MTase-Glo luminescence, SAH detection, recombinant enzyme; measured here: NNMT inhibition potency.
Assay [10] is described as follows: A High-Content qHTS Against Drug Library for the Identification of Small Molecules that Inhibit DYT1 Early Onset Primary Dystonia-Associated Cell Pathology (AID 1645839). As to conditions: HEK293 Flp-In EGFP-delE TorsinA, punctate imaging, 48 h; measured here: cell count cytotoxicity. A digest of the protocol: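 In this high-content image screen, delE TorsinA mislocalization in inducible Flp-In 293 cells is scored as %pathology, with cell count serving as the counterscreen. Compound exposure lasts 48 h under tetracycline induction in reduced-serum medium.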

The nature of assay [11]: Nrf2 qHTS screen for inhibitors: Validation (AID 493153). As to conditions: A549 ARE-Fluc reporter, 18-24 h; AC50: CellTiter-Fluor fluorescence read, measured here: cytotoxicity CellTiter-Fluor AC50; viability change: measured here: cytotoxicity max response. The gist of the method:
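A549 cells carrying an ARE-driven firefly luciferase reporter, in 5% FBS OPTI-MEM, were treated with compounds in concentration-response for 18-24 h at 37°C. Viability was read by CellTiter-Fluor fluorescence, then Nrf2 activity by luciferase luminescence.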

Assay [12] can be described thus: qHTS Validation Assay to Find Inhibitors of Chronic Active B-Cell Receptor Signaling (AID 485345). As to conditions: ABC-DLBCL cells, chronic BCR signaling reporter; measured here: CBR control luciferase (viability counter). A digest of the protocol: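 Read-out: ratio of filter-corrected green (IkappaBalpha fusion) to red (native) luciferase signal in doxycycline-induced TMD8 cells after 4 h at 37C. Titration spanned 46 uM–3 nM; Data were normalised to basal cells and 10 uM MG-132 wells.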

Where [13] appears, read: measured here: cell count channel max response.
Setting [14] is: measured here: lipid channel max response.
[15] abbreviates: measured here: red reporter channel AC50, EF-alpha promoter control reporter in MSC80 mouse Schwann cells.
Where [16] appears, read: measured here: 460 nm blue channel.
The mark [17] stands for this setting: measured here: green reporter channel AC50, mouse Pmp22 promoter in mouse Schwann cells.
Tags describe the fitted curve by direction and shape.

What is called AC50 is the midpoint of the concentration-response curve, whichever way the signal moves. As for `CSc1nc(NC(C)C)nc(NC(C)C)n1`, the max response was 25.3% in [1] (setting [13]), 34.7% in assay [1] (setting [14]), 7.18% in assay [2] and -7.84% in assay [3]. In addition, the AC50 in [1] was 22.4 µM [rising, partial curve].
Broadly, the IC50 is the midpoint of a concentration-inhibition curve. With `Cc1sc2ccccc2c1CC1=NCCN1`, the max response in [1] (setting [13]) amounted to 64.2%; in assay [1] (setting [14]), 61.4%. In addition, the IC50 in assay [4] is 19.3 µM [falling, partial curve].
In the case of `CP(=O)(O)C1=CCNCC1`, the max response in assay [1] (setting [13]) was 36.5%; in [1] (setting [14]) it was 36.7%. In assay [5] (setting [15]), the AC50 is 84.9 µM [falling, single point].
Turning to `C[C@]12CC[C@H](OS(=O)(=O)O)CC1=CCC1C2CC[C@]2(C)C(=O)CC[C@@H]12` (stereo partly drawn), the max response amounted to 39.2% in assay [1] (setting [13]) and 39.1% in [1] (setting [14]). In addition, the AC50 in [5] (setting [15]) is 75.7 µM [falling, single point].
For `CCOP(=S)(OCC)Oc1ccc2c(C)c(Cl)c(=O)oc2c1`, the max response in [1] (setting [13]) stood at 10.5%; in assay [1] (setting [14]), 20%; in [6], 85.3%; in [2] it was 25.7%; in assay [3], 14.8%. In addition, in [1], the AC50 is 0.501 µM [rising, full curve, poor fit].
`Nc1ccncc1`: the max response in assay [1] (setting [13]) was 32%; in assay [1] (setting [14]), 30.3%. Further, the AC50 in assay [7] (setting [16]) is 25.1 µM [rising, single point]. The IC50 was 24.3 µM [falling, partial curve, poor fit] in assay [8] and 15.3 µM [falling, partial curve] in assay [9].
For the compound `c1ccc2nc(N3CCNCC3)ccc2c1`, the max response came to 40.7% in [1] (setting [13]) and 41.7% in assay [1] (setting [14]). Moreover, the AC50 is 67.5 µM [falling, partial curve] in assay [5] (setting [17]); 75.7 µM [falling, partial curve] in assay [5] (setting [15]); 17.8 µM [falling, single point] in assay [10].
For `COC(=O)c1cc2c(cn1)[nH]c1ccccc12`, the max response in [1] (setting [13]) was 81.7%; in [1] (setting [14]), 84.8%. For the same compound, in assay [5] (setting [15]), the AC50 was 67.5 µM [falling, partial curve].
In the case of `NC(CP(=O)(O)O)C(=O)O` (stereo not drawn), the values for the max response in [1] (setting [13]) and in assay [1] (setting [14]) were 36.3% and 37.8%, respectively. The AC50 in assay [5] (setting [15]) was 84.9 µM [falling, single point].
For `C[C@@H](N)Cc1cnc[nH]1`, the max response was 49.2% in assay [1] (setting [13]) and 49.8% in [1] (setting [14]). Also, the viability change in assay [11] is -2.69%. Besides, in assay [8], the IC50 is 10.9 µM [rising, partial curve].
For the compound `CNc1ccc2oc(C[C@H]3O[C@@]4(CC[C@H]3C)O[C@H]([C@H](C)C(=O)c3ccc[nH]3)[C@H](C)C[C@H]4C)nc2c1C(=O)O`, the max response in [1] (setting [13]) was -31.7%; in [1] (setting [14]), -75.1%. For the same compound, the AC50 was 2.69 µM [falling, full curve] in assay [5] (setting [17]); 6.01 µM [falling, full curve] in [5] (setting [15]); 29.1 µM [falling, single point] in [12]; 4.11 µM [falling, full curve] in assay [11]. Moreover, in assay [11], the viability change was -64.2%. The IC50 in [9] is 24.3 µM [falling, partial curve].
As to `C=C1CC2C(CC[C@]3(C)C(=O)CCC23)[C@]2(C)C=CC(=O)C=C12` (stereo partly drawn), the max response in assay [1] (setting [13]) worked out at 16.5%; in [1] (setting [14]), 20.5%. The AC50 is 1.78 µM [rising, full curve, poor fit] in assay [1] and 0.251 µM [falling, full curve] in [7] (measured here: 530 nm viability channel).
In the case of `CNCCC(Oc1ccc(C(F)(F)F)cc1)c1ccccc1` (stereo not drawn), the values for the max response in assay [1] (setting [13]) and in assay [1] (setting [14]) were 42.4% and 41.9%, respectively. For the same compound, the AC50 was 33.8 µM [falling, full curve] in assay [5] (setting [17]) and 33.8 µM [falling, full curve] in assay [5] (setting [15]).
For `CCCCc1ccc(C(=O)O)nc1`, the max response in assay [1] (setting [13]) was determined as 22.9%; in [1] (setting [14]), 30.1%. For the same compound, the AC50 in assay [1] was 31.6 µM [rising, single point]; in [5] (setting [15]), 60.1 µM [falling, partial curve]; in assay [11], 20.6 µM [falling, partial curve, poor fit]; in assay [7] (setting [16]) it was 1.41 µM [falling, full curve, poor fit]. The viability change in [11] was -21%.
As to `CCOC(=O)c1ncn2c1[C@@H]1CCCN1C(=O)c1cc(OC)ccc1-2`, the figures for the max response in assay [1] (setting [13]) and in assay [1] (setting [14]) were 44.8% and 48.9%, respectively. In addition, the AC50 in assay [5] (setting [17]) is 75.7 µM [falling, single point]; in assay [5] (setting [15]) it was 75.7 µM [falling, partial curve].
`CCCN1CCC[C@@H]2Cc3nc(N)ncc3C[C@H]21`: the max response in assay [1] (setting [13]) turned out to be 40.2%; in [1] (setting [14]), 28%. In addition, the AC50 in [10] was 35.5 µM [rising, single point].
With `CCC(C(=O)O)C1CCC(C)C(C(C)C(O)C(C)C(=O)C(CC)C2OC3(C=CC(O)[C@@]4(CC[C@](C)(C5CC[C@@](O)(CC)C(C)O5)O4)O3)C(C)CC2C)O1` (stereo partly drawn), the results for the max response in assay [1] (setting [13]) and in [1] (setting [14]) were 2.89% and -33.9%, respectively. Moreover, the AC50 in assay [1] was 20 µM [falling, single point]; in assay [7] (setting [16]) it was 0.0398 µM [falling, full curve, poor fit].
For `COc1ccc2c(c1O)-c1cccc3c1C(C2)N(C)CC3` (stereo not drawn), the results for the max response in assay [1] (setting [13]) and in assay [1] (setting [14]) were 37.5% and 39.6%, respectively. The AC50 was 37.9 µM [falling, partial curve] in assay [5] (setting [17]) and 67.5 µM [falling, partial curve] in [5] (setting [15]).
